{"source": "paper PMC12820563", "about": "“FoxP3 forms a head-to-head dimer in vivo and stabilizes its multimerization on adjacent microsatellites”", "note": "The list shows a part of the results.", "data": [{"target": "T1, MBP-FoxP1dN (Mus musculus, UniProt P58462 326-579)", "T1 sequence": "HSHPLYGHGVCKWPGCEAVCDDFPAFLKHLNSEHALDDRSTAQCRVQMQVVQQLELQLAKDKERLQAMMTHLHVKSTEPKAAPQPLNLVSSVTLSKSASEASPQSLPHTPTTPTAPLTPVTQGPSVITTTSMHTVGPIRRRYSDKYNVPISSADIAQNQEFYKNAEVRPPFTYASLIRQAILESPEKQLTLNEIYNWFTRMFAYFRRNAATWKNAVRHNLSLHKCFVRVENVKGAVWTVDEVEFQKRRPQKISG", "assay": "PD-seq (MBP pull-down with sequencing); 20 mM Tris-HCl pH 7.5, 100 mM NaCl, 1.5 mM MgCl2, 0.4 uM protein, 0.1 uM dsDNA library, 30 min, room temperature, amylose pull-down; high values mean tight binding", "conditions": "protein: recombinant; tags: His6-MBP; chain copies: 2; dsDNA, one strand shown", "outline": "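A degenerate double-stranded DNA library, filled in with Klenow, was added at 0.1 µM to 0.4 µM His6-MBP-tagged mouse FoxP3 or FoxP1 fragment lacking the N-terminus, expressed in E. coli. Incubation lasted 30 min at room temperature in Tris pH 7.5 buffer with NaCl and MgCl2, after which complexes were collected on amylose resin, washed three times, digested with proteinase K to free the DNA, barcoded by PCR and sequenced by Illumina. Binding is the pooled-replicate reads-per-million enrichment of pull-down over input.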", "values": [{"sequence": "GATGATTGTTCTCCCAGCTGATGAATTTCTGAAGTCGAGTAAACAAATTTTCCTAATCTTTCTGTTCAAGCGCCATCTAC", "binding signal": "0.815 RPM ratio (pull-down/input)"}, {"sequence": "GATGATTGTTCTCCCAGCTGATGAATTCTCAAGTTCGAGTAAACAAATTTTCCTAATCTTTCTGTTCAAGCGCCATCTAC", "binding signal": "0.843 RPM ratio (pull-down/input)"}, {"sequence": "GATGATTGTTCTCCCAGCTGATGAATTTGGGGCGTCGAGTAAACAAATTTTCCTAATCTTTCTGTTCAAGCGCCATCTAC", "binding signal": "0.889 RPM ratio (pull-down/input)"}, {"sequence": "GATGATTGTTCTCCCAGCTGATGAATTGATACTCTCGAGTAAACAAATTTTCCTAATCTTTCTGTTCAAGCGCCATCTAC", "binding signal": "1.05 RPM ratio (pull-down/input)"}, {"sequence": "GATGATTGTTCTCCCAGCTGATGAATTTACCGTATCGAGTAAACAAATTTTCCTAATCTTTCTGTTCAAGCGCCATCTAC", "binding signal": "1.2 RPM ratio (pull-down/input)"}, {"sequence": "GATGATTGTTCTCCCAGCTGATGAATTCCCACTATCGAGTAAACAAATTTTCCTAATCTTTCTGTTCAAGCGCCATCTAC", "binding signal": "0.861 RPM ratio (pull-down/input)"}, {"sequence": "GATGATTGTTCTCCCAGCTGATGAATTCATCTTTTCGAGTAAACAAATTTTCCTAATCTTTCTGTTCAAGCGCCATCTAC", "binding signal": "0.966 RPM ratio (pull-down/input)"}, {"sequence": "GATGATTGTTCTCCCAGCTGATGAATTCCGAGAATCGAGTAAACAAATTTTCCTAATCTTTCTGTTCAAGCGCCATCTAC", "binding signal": "0.869 RPM ratio (pull-down/input)"}, {"sequence": "GATGATTGTTCTCCCAGCTGATGAATTTCTGTCCTCGAGTAAACAAATTTTCCTAATCTTTCTGTTCAAGCGCCATCTAC", "binding signal": "0.915 RPM ratio (pull-down/input)"}, {"sequence": "GATGATTGTTCTCCCAGCTGATGAATTGTAAGGGTCGAGTAAACAAATTTTCCTAATCTTTCTGTTCAAGCGCCATCTAC", "binding signal": "0.872 RPM ratio (pull-down/input)"}, {"sequence": "GATGATTGTTCTCCCAGCTGATGAATTAGGTGGTTCGAGTAAACAAATTTTCCTAATCTTTCTGTTCAAGCGCCATCTAC", "binding signal": "0.892 RPM ratio (pull-down/input)"}, {"sequence": "GATGATTGTTCTCCCAGCTGATGAATTGTGGGCTTCGAGTAAACAAATTTTCCTAATCTTTCTGTTCAAGCGCCATCTAC", "binding signal": "0.932 RPM ratio (pull-down/input)"}, {"sequence": "GATGATTGTTCTCCCAGCTGATGAATTAAGAATGTCGAGTAAACAAATTTTCCTAATCTTTCTGTTCAAGCGCCATCTAC", "binding signal": "0.79 RPM ratio (pull-down/input)"}, {"sequence": "GATGATTGTTCTCCCAGCTGATGAATTCCGTCGCTCGAGTAAACAAATTTTCCTAATCTTTCTGTTCAAGCGCCATCTAC", "binding signal": "0.805 RPM ratio (pull-down/input)"}, {"sequence": "GATGATTGTTCTCCCAGCTGATGAATTTGTCGCCTCGAGTAAACAAATTTTCCTAATCTTTCTGTTCAAGCGCCATCTAC", "binding signal": "1.05 RPM ratio (pull-down/input)"}, {"sequence": "GATGATTGTTCTCCCAGCTGATGAATTTGCAGGGTCGAGTAAACAAATTTTCCTAATCTTTCTGTTCAAGCGCCATCTAC", "binding signal": "0.861 RPM ratio (pull-down/input)"}, {"sequence": "GATGATTGTTCTCCCAGCTGATGAATTTAGCGAGTCGAGTAAACAAATTTTCCTAATCTTTCTGTTCAAGCGCCATCTAC", "binding signal": "0.922 RPM ratio (pull-down/input)"}, {"sequence": "GATGATTGTTCTCCCAGCTGATGAATTACTTACCTCGAGTAAACAAATTTTCCTAATCTTTCTGTTCAAGCGCCATCTAC", "binding signal": "1.04 RPM ratio (pull-down/input)"}, {"sequence": "GATGATTGTTCTCCCAGCTGATGAATTTATGCCGTCGAGTAAACAAATTTTCCTAATCTTTCTGTTCAAGCGCCATCTAC", "binding signal": "1.12 RPM ratio (pull-down/input)"}, {"sequence": "GATGATTGTTCTCCCAGCTGATGAATTTGGCTCTTCGAGTAAACAAATTTTCCTAATCTTTCTGTTCAAGCGCCATCTAC", "binding signal": "0.858 RPM ratio (pull-down/input)"}, {"sequence": "GATGATTGTTCTCCCAGCTGATGAATTCCTTCAATCGAGTAAACAAATTTTCCTAATCTTTCTGTTCAAGCGCCATCTAC", "binding signal": "0.917 RPM ratio (pull-down/input)"}, {"sequence": "GATGATTGTTCTCCCAGCTGATGAATTATTCAGATCGAGTAAACAAATTTTCCTAATCTTTCTGTTCAAGCGCCATCTAC", "binding signal": "0.97 RPM ratio (pull-down/input)"}, {"sequence": "GATGATTGTTCTCCCAGCTGATGAATTGGCGGGTTCGAGTAAACAAATTTTCCTAATCTTTCTGTTCAAGCGCCATCTAC", "binding signal": "0.805 RPM ratio (pull-down/input)"}, {"sequence": "GATGATTGTTCTCCCAGCTGATGAATTTAGCGCGTCGAGTAAACAAATTTTCCTAATCTTTCTGTTCAAGCGCCATCTAC", "binding signal": "1 RPM ratio (pull-down/input)"}, {"sequence": "GATGATTGTTCTCCCAGCTGATGAATTAGAGGGGTCGAGTAAACAAATTTTCCTAATCTTTCTGTTCAAGCGCCATCTAC", "binding signal": "0.823 RPM ratio (pull-down/input)"}, {"sequence": "GATGATTGTTCTCCCAGCTGATGAATTCACGGCATCGAGTAAACAAATTTTCCTAATCTTTCTGTTCAAGCGCCATCTAC", "binding signal": "1.02 RPM ratio (pull-down/input)"}, {"sequence": "GATGATTGTTCTCCCAGCTGATGAATTTGGTCAGTCGAGTAAACAAATTTTCCTAATCTTTCTGTTCAAGCGCCATCTAC", "binding signal": "0.894 RPM ratio (pull-down/input)"}, {"sequence": "GATGATTGTTCTCCCAGCTGATGAATTGCACGTCTCGAGTAAACAAATTTTCCTAATCTTTCTGTTCAAGCGCCATCTAC", "binding signal": "1.15 RPM ratio (pull-down/input)"}, {"sequence": "GATGATTGTTCTCCCAGCTGATGAATTCGCATTTTCGAGTAAACAAATTTTCCTAATCTTTCTGTTCAAGCGCCATCTAC", "binding signal": "1.22 RPM ratio (pull-down/input)"}, {"sequence": "GATGATTGTTCTCCCAGCTGATGAATTAGTCCCCTCGAGTAAACAAATTTTCCTAATCTTTCTGTTCAAGCGCCATCTAC", "binding signal": "0.831 RPM ratio (pull-down/input)"}, {"sequence": "GATGATTGTTCTCCCAGCTGATGAATTCATTGTCTCGAGTAAACAAATTTTCCTAATCTTTCTGTTCAAGCGCCATCTAC", "binding signal": "0.891 RPM ratio (pull-down/input)"}]}]}
